Reference: the supplement of paper PMC11417369
The list shows a part of the results.

tested on: PfAP2-HC AP2 domain (GST-tagged); assay: gcPBM binding intensity (ln(normalized median fluorescence intensity)); higher = stronger DNA binding
Procedure, shortened: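 An Agilent 4 × 180k array of primer-extended double-stranded 36-bp intergenic genomic probes, with negative controls, was incubated for 1 h with GST-tagged P. falciparum DNA-binding domains expressed in E. coli. Alexa488 anti-GST antibody detected bound protein, scanned at 488 nm. Binding intensity is the highest Masliner-normalised natural-log median intensity across replicate spots of either probe orientation.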

Row | Sequence | gcPBM binding intensity (ln)
1 | TTTATTTATTATTGTTGTACACTTTTTATAAAAAAA [XGTACX_site5114] | 9.51
2 | TAGTTTTTTATAAAATTATTTATATAAAGGTAAAAA [CACACA_negctrl_site490] | 9.2
3 | TTCCCTAATATTTGTTGTACTTGTTATATTTTTTTT [XGTACX_site5994] | 9.9
4 | TATATTTGTAAGAAGAGTACTAAAAAAAGAATAAAG [XGTACX_site8704] | 9.69
5 | ATATATATATATATATGTACGTACTCAGTTATGCCT [XGTACX_site453] | 9.73
6 | ATAGTATCTGGTAGCTGTACGAGTCGTAGAGTGCAG [XGTACX_site2020] | 9.68
7 | ATTTATTAACCATATACACACATATATTTGTATTTA [CACACA_site6744] | 9.84
8 | GTGTATATATGTTATACACACAAAAATATTTTGTAT [CACACA_site265] | 9.79
9 | AAAAATCATATAGGTTGTACGGGTAGTTTATTTTAT [XGTACX_site6936] | 9.79
10 | TTATTATATAAAGTTTCACACATTATTTGTTCAAAC [CACACA_site5218] | 9.64
11 | ATATGAAGTATCGAATTAAGGGCAACAAATAAATTA [CACACA_negctrl_site1116] | 9.66
12 | AATATAAGCAAATACACACACACATATAAATATGTA [CACACA_site7741] | 10.8
13 | TACATATATAAATATGTACACACATATGTATGATCT [CACACA_site9284] | 9.83
14 | AAAAAAATAATATAAATAATGAAAAGATATAAATAA [GTGCAC_negctrl_site432] | 9.72
15 | TTATATATGACTAACGGTTTTTTTTTTTTTTTTTTT [CACACA_negctrl_site576] | 9.54
16 | AGTAGTCTGGAGAAGAGTACACAGTATCTGGTAACA [XGTACX_site2032] | 9.49
17 | TAATATCAATTTTTATGTACTTATATATATATATAT [XGTACX_site5879] | 9.77
18 | ATTGAGAGAAAAAAATGTACTTGATCAAAATGGATA [XGTACX_site1649] | 9.66
19 | CGCACCCACAGACACACACACACATATATATATATA [CACACA_site2202] | 11.4
20 | AATATATATTAAATATGTACTTATTTTTTGGTTGCT [XGTACX_site3613] | 9.63
21 | TACATACAGAAACACACACACACATATATATATATA [CACACA_site2919] | 11.1
22 | AAAGAATAATTAAATACACACATATTACAGTAAAAA [CACACA_site2450] | 10.1

Row | Sequence | gcPBM binding intensity (ln)
23 | ACAAAAAAAAAAAAAAAAAAAAAAAAAAAATAATAA [CACACA_negctrl_site1640] | 9.18
24 | AGATCAATAATGACAAGTACACAAAATAACATTTAA [XGTACX_site6968] | 9.85
25 | AAAATATATTAAGGCACACACATACATATTTATATA [CACACA_site7707] | 10.2
26 | ATTTTGTAAAAGGTCATACACACATATTCAAAAGAA [CACACA_site2946] | 9.85
27 | TGTACAGTATATACAACACACATTTGTATAAATATA [CACACA_site1002] | 10.2
28 | TGTACACCCAGAAATGCACACACATATATATATATA [CACACA_site8716] | 9.93
29 | TGCATAATTAAAAATGGTACACTGTATTTATAATAT [XGTACX_site1575] | 9.61
30 | TATAAATTAAGATAACGTACATATAATAATATAAAC [XGTACX_site487] | 9.87
31 | TATATATATTTTATGTGTACTCAATGTTATAACGCA [XGTACX_site8360] | 9.57
32 | AATAGAGTTGAATGCACACATACAAATTTTTAGTTT [CACACA_site3564] | 9.9
33 | GTTTCTACTTATATAACAGGACACGTGTGAATAATT [TGCATGCA_negctrl_site430] | 9.84
34 | TTGAAGGTGGCAATGTGTACATAGAATAACCAGTGC [XGTACX_site4738] | 9.82
35 | ACAATTGCATCTATCACACATACATACATACATACA [CACACA_site5063] | 9.94
36 | AAAAAAAAAAAACATTGTACGCACATTTTATATGTC [XGTACX_site6974] | 9.69
37 | AAAAAAATACATACGTGTACCCACATATATGTATCT [XGTACX_site5319] | 9.75
38 | AATAAAAATAAAAGCACACATAAATATATATATATT [CACACA_site1441] | 9.95
39 | TCATGGCCATTTTCAGTGCATATGTGTATTTAATAT [GTGCAC_site9529] | 9.74
40 | GCAAGTCCATGAACGGTGCAGGAATTAACAAAAATA | 9.5
41 | TATAATGATGATGATAGTACGTATTAGTATAAAAAA [XGTACX_site9] | 9.79
42 | TCATGGGTGTATTTCACACACGGATAATCATTTATA [CACACA_site4663] | 9.79
43 | AGAAATAAAAAAAAAAATATATATATTATATATATA [CACACA_negctrl_site1799] | 9.47
44 | ATATTTTTTTTTGTTACACACGTTTTTTAAAAAATG [CACACA_site1603] | 9.78

Row | Sequence | gcPBM binding intensity (ln)
45 | TCATAAAAATAAAAATGTACACATTAGAAATATTGT [XGTACX_site3671] | 9.78
46 | TTATAATTTTTCTATTGTACATTTAATAATATATAT [XGTACX_site7326] | 9.5
47 | TTATACATATTTATATGTACGTAATATAATATTAAT [XGTACX_site6520] | 9.55
48 | ATGAAGAAATAAATGTGTACATATCTTAGTATCATA [XGTACX_site8658] | 9.79
49 | TATTTAATTTATACACGTACATATATAAATAATACA [XGTACX_site1148] | 9.49
50 | TATAAATATCTGTATGCACACATTTTTTTTGGAAAA [CACACA_site4734] | 9.64
51 | TCAACAAAATTGAAGGAACACACATACATATATATA [CACACA_site7940] | 9.85
52 | ATTTTTTCTCATAAAAACGTGAACGTTTATTTTACA [CACACA_negctrl_site1041] | 9.59
53 | ATTATAAAAGAATTTTTTTTTATTTCATTAAAATAT [CACACA_negctrl_site1137] | 9.08
54 | AGCACATAAATAATTAAACACACATTGTTCTAGACA [CACACA_site8746] | 9.78
55 | TTACTATAAAATGTCACACATTCTGTTTCCTTACTT [CACACA_site5714] | 9.78
56 | AACGATTTACATCACTGTACTAATGATATACCTCAT [XGTACX_site7463] | 9.85
57 | TATATATATATATATTGTACTATATAGTATCTTTTT [XGTACX_site1646] | 9.78
58 | TATATATTTTCTTTTGCACACTGTTTTCCTTTTTTT [CACACA_site2739] | 10
59 | TACCCTTGCATGTAGGTGCAATTTTTTTTTTTTTTT | 9.64
60 | TTCGTAATTTATATCACACACATATATATATAATAA [CACACA_site3115] | 9.85
61 | CAACTTTATACATATAGTACAAGTTATATTTTATTA [XGTACX_site6651] | 9.54
62 | TAATAATAGTACTGACATCAAAATCTTATTAAAAAT [GTGCAC_negctrl_site308] | 9.58
63 | TTCTTTTTTATTTTTCAACACACATAATAAATTTCT [CACACA_site8253] | 9.85
64 | CTTTCCATATATGATAGTACACGATAAAAAAAAAAA [XGTACX_site5772] | 9.34
65 | AAAGAAATAAGGTGCACACATATACATATATATATA [CACACA_site429] | 10.1
66 | TTTAAAAAAAATTCATATTATATATATATATATTAT [CACACA_negctrl_site1733] | 9.5

Row | Sequence | gcPBM binding intensity (ln)
67 | AAGAAATAATTATTATGTACTTAAAAAAATTAAAAT [XGTACX_site7423] | 9.58
68 | AAGAAATAAATACATACACACATATATAAATAAATA [CACACA_site7559] | 10.1
69 | ATATATATATAATTATATAAAATATATCATATGTTA [XGTACX_negctrl_site47] | 9.56
70 | TTTATGTATTTAATATGTACATATAGTTGTTAATAA [XGTACX_site1938] | 9.6
71 | GCTATATATTAATGTTGTACTTTATGTTCATATTGT [XGTACX_site3619] | 9.88
72 | AAAATGTACGCATATACACACACATAAATAGATACG [CACACA_site9124] | 10.6
73 | TAAATATAGAAACACACACACATTAATACATATATT [CACACA_site3489] | 10.4
74 | AAATTTGAAATGCATGAACACACACCGCTATAAATG [CACACA_site8230] | 10.3
75 | TAATTTTTTATATATTGTACAAATAATATATGATGT [XGTACX_site268] | 9.49
76 | ACATCATAAAATTTATGTACACATTTTTAATTATAC [XGTACX_site7759] | 9.63
77 | ATCATTTTTATGTACACACACATATACGTTGAATAT [CACACA_site1865] | 10.1
78 | AAGGTATACACTGCTTTATCAAGTTTAACTCTTTTT [XGTACX_negctrl_site118] | 9.65
79 | TATAAAATTTACGTGTGTACATATTTAATAATTTTT [XGTACX_site5001] | 9.69
80 | AAGATATGAGGGAATACACACATATTTATATTTATA [CACACA_site6846] | 9.9
81 | TAATTTATAACACGCGCACACATATATATATAGTAA [CACACA_site121] | 9.86
82 | AATAGTGTCATAAAAACTATTATCATATAATGTGAA [CACACA_negctrl_site1578] | 9.56
83 | TTTCTTTTTAACTCTTACATAATAGGTGGTAGAAGG [TGCATGCA_negctrl_site176] | 9.35
84 | TTGTTGTGTATTATCGTGCACATAATATAAAAGATT | 9.59
85 | TTATTTATTTATTATAGTTCACTTGAAAATACAAGA [CACACA_negctrl_site1480] | 9.38
86 | CATATATACAGTAACACACACAAAAAAATATGAATA [CACACA_site3996] | 10.5
87 | ATAAAAAAAAAAAATACACACATATATATATATATA [CACACA_site1709] | 9.95
88 | AAAAAATATAAAAAAACACACAAAAAAAAAAAAAAA [CACACA_site1382] | 9.71
